Measurements: the RNAGym collection of RNA variant scans (doi:10.1073/pnas.2313332121)
This sample is rich in variants without activity.

B1: TPR 5TU (parent)
chain: GGAUCUUCUCGAUCUAACAAAAAAGACAAAUCUGCCACAAAGCUUGAGAGCAUCUUCGGAUGCAGAGGCGGCAGCCUUCGGUGGCGCGAUAGCGCCAACGUUCUCAACUAUGACACGCAAAACGCGUGCUCCGUUGAAUGGAGUUUAUCAUG

Variants of: B1
Assay: polymerase ribozyme fitness, log enrichment relative to wild type (log ratio); higher = more active; in vitro selection for triplet polymerase activity
In short: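 Only genotypes with ≥10 input reads and ≥1 read per output were kept after Illumina sequencing of input and output libraries. These libraries were PCR-built, transcribed mutants of each subunit of a heterodimeric triplet polymerase ribozyme, each put through one triplicate in vitro selection round with frozen incubation at −7 °C, gel excision of extended constructs, streptavidin-bead capture and RT-PCR. Fitness is a logarithmic ratio of genotype enrichment to wild-type enrichment, from inverse-variance-weighted replicate averages, with the logarithm in base 2.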

Row | Variant | polymerase ribozyme fitness (log ratio)
1 | C14U G84U A107U A147U | ≤ -4.2
2 | C14U A40C C76G C114U | ≤ -4.2
3 | C14U C54G C87G A107U | ≤ -4.2
4 | C14U A30U G65A G88A U139A | ≤ -4.2
5 | C14U C32A G70U G83U | ≤ -4.2
6 | C14U A26U A47C A66C G84C G86U A89U C96U | ≤ -4.2
7 | C14U A16U A73U C87U C114U | ≤ -4.2
8 | C14U C87U U101C C118G | -3.29
9 | C14U G34U A49C G59C C69A A91C U139A A147C | ≤ -4.2
10 | C14U C54U | -1.87
11 | C14U C43A C54G C96A | ≤ -4.2
12 | C14U C38U C43A G62C C95A G141C | ≤ -4.2
13 | C14U A16C C51U A52G C93U C116A A121C | -1.81
14 | C14U A47C C54U G84A | -1.86
15 | C14U A49G C57U G71A C99G U104A G133C A137C | ≤ -4.2
16 | C14U A20G C69G C87A G128C | ≤ -4.2
17 | C14G U127G | -4.18
18 | C14U A26U U55A G74A A91C U109G | ≤ -4.2
19 | C14U G94A A137U | ≤ -4.2
20 | C14U G74A C99A | ≤ -4.2
21 | C14U A23U U56C C87U U90G | ≤ -4.2

Row | Variant | polymerase ribozyme fitness (log ratio)
22 | C14U C18G G25A C85A C123U A150G | ≤ -4.2
23 | C14U A66G G94A C96U C99G U144G | ≤ -4.2
24 | C14U A107U G117A C118A A142G | ≤ -4.2
25 | C14G U55A U61A G71U C75U C85U | ≤ -4.2
26 | C14U A26C G42C U45A A64U A73G C87G C96A | ≤ -4.2
27 | C14U C32G G50A G74A C96U G128A | ≤ -4.2
28 | C14U A28U A52C G88U A91G C96U U134G G140U | ≤ -4.2
29 | C14U A20C A39C G50A G83C C116U G128A | ≤ -4.2
30 | C14U C32A U56A G80C C87U U102G A142G | ≤ -4.2
31 | C14U A37C C38G A39U G50C G94A A97U G141A | ≤ -4.2
32 | C14U A19U A52U C54A A73G C93G U134G U148G | ≤ -4.2
33 | C14U A19U A26U U56C G71A C76G G84C C85G | ≤ -4.2
34 | C14G U56G C95U C116A G140U | ≤ -4.2
35 | C14U C93U U127A C131A | ≤ -4.2
36 | C14U C36U G74A A91G C95U | ≤ -4.2
37 | C14U A138C | -3.75
38 | C14G U55G G58A A66G A89U G92U C114A A115C | ≤ -4.2
39 | C14G U139G U144G | -1.38
40 | C14G U135C | ≤ -4.2
41 | C14U C27U U55G C93G C105G | ≤ -4.2
42 | C14U G83A A120G U139A | ≤ -4.2

Row | Variant | polymerase ribozyme fitness (log ratio)
43 | C14U C43U C72A G84A C93G C95G A142G U144A | ≤ -4.2
44 | C14U G25C A26C G42A A60U G84A C108U G152A | ≤ -4.2
45 | C14U C85G C131U A138U U148A | ≤ -4.2
46 | C14U A20C C43U U53A A60U C87G C103G G141A | ≤ -4.2
47 | C14U A21C C123A G140C | ≤ -4.2
48 | C14U A19U A40U G67A C105G | ≤ -4.2
49 | C14U A30U U53G G58U G65C G74A | ≤ -4.2
50 | C14U A23U U31A A47C G92C C96G C131A | ≤ -4.2
51 | C14G U77G C93U C96G | ≤ -4.2
52 | C14U A22U C38U A66C C93U A113U | ≤ -4.2
53 | C14U G58C G86U C105A | ≤ -4.2
54 | C14U A21G A24C A28U U53C C75U | ≤ -4.2
55 | C14U A30G A52C U55G C87U A89U C116A | ≤ -4.2
56 | C14U A26U G34A U111G | ≤ -4.2
57 | C14U A23C G83A G126C | ≤ -4.2
58 | C14U A41G G83A A137U U151C | ≤ -4.2
59 | C14U A150C | ≤ -4.2
60 | C14U A30C A91U | ≤ -4.2
61 | C14G U44A A49C C75G C93G | ≤ -4.2
62 | C14U C36A G46C C103A A115G | ≤ -4.2
63 | C14U A28U A122G G141C | -4.15

Row | Variant | polymerase ribozyme fitness (log ratio)
64 | C14U C35G A40G U55G U77C C87A | ≤ -4.2
65 | C14U G71A G84U A138C G141C | ≤ -4.2
66 | C14U C27G U56A G68A U104A | ≤ -4.2
67 | C14G U45A C93U C114U U127A | ≤ -4.2
68 | C14U C87U G88C | ≤ -4.2
69 | C14U A16U A49C G50A U53A C72U U77G C99G G100A C118G | ≤ -4.2
70 | C14U G94C | -2.9
71 | C14U C85A U134G A142G A150U | ≤ -4.2
72 | C14U A40U U44A G59C C87G U104G G124A | ≤ -4.2
73 | C14U A52C A73G G88C A91G C96U A106G | ≤ -4.2
74 | C14U C93A A110U | ≤ -4.2
75 | C14U A29U U111G | ≤ -4.2
76 | C14U G25A C54U C63G A73G U90C G92C U148A | ≤ -4.2
77 | C14G U33C A66G G94A | ≤ -4.2
78 | C14U C79A G84A A150G | ≤ -4.2
79 | C14U A23G A107U A138C | ≤ -4.2
80 | C14U C32U A41C G67C G141A U146A | ≤ -4.2
81 | C14U G94C A107G G117A A142U | ≤ -4.2
82 | C14U C32A A150C | ≤ -4.2
83 | C14U A17G C36G G126A | ≤ -4.2
